# Measurements taken from the supplement of paper PMC11417369.
# ± gives the standard deviation of the averaged measurements. This is one part of the list.
# Test system: PfAP2-G AP2 domain (GST-tagged)
# Experiment: gcPBM binding intensity (ln(normalized median fluorescence intensity)); higher = stronger DNA binding
# Outline: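 An Agilent 4 × 180k array of primer-extended double-stranded 36-bp intergenic genomic probes, with negative controls, was incubated for 1 h with GST-tagged P. falciparum DNA-binding domains expressed in E. coli. Alexa488 anti-GST antibody detected bound protein, scanned at 488 nm. Binding intensity is the highest Masliner-normalised natural-log median intensity across replicate spots of either probe orientation.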
row,Sequence,gcPBM binding intensity (ln)
1,CCCTTTTTTTTTTAATGTACATATAATTATATATTT [XGTACX_site8568],11.3 ± 0.61
2,AAAGCAAAAGGAAAATAACCAACCCTAATTAACACA [CACACA_negctrl_site530],10.04 ± 0.071
3,AATTGTACGTAGGGGTATAAAAGCTTAAAAATGGGG [CACACA_negctrl_site1392],11.6 ± 0.91
4,AAATTAGACTATAATACACACATAAAAAAAAAAAAA [CACACA_site6155],9.93 ± 0.35
5,AGATATCTTGTGAAATAAAAAAAATAATTGCTTATA [CACACA_negctrl_site798],9.63 ± 0.17
6,ATATTATATTATTAATGTACATATATATAATTTTAA [XGTACX_site4974],11.2 ± 0.64
7,AAGGCAAACAAACACACACACATATATACCTATATA [CACACA_site5203],10.1 ± 0.2
8,AGAAATGAAATCCAAAAACGAGGAACCAATAACGCA [CACACA_negctrl_site1758],10.29 ± 0.014
9,TCTTATCCATATATTACACACTATATATAGAAATTA [CACACA_site291],10.2 ± 0.31
10,ATATAAACATTTAGTAATCCATATAGGTACTACTGA [CACACA_negctrl_site1249],11.2 ± 0.7
11,AAAAAAAATATATAAACACACATATTTATATACGCA [CACACA_site1631],9.845 ± 0.049
12,TATTTATAGATATATACACACATATACATATTGTTT [CACACA_site7611],9.83 ± 0.16
13,ATATATGCTAATATATGTACTGATTATATCTCTTCA [XGTACX_site7156],10.8 ± 0.59
14,TCCTTCGAAACTAAAATTCATTTAAAATATTGATAT [CACACA_negctrl_site369],9.615 ± 0.021
15,AAAGAAAAAAAAATTACACACATATATTATAGATAT [CACACA_site7495],9.82 ± 0.085
16,TAGGTCCTCATTTTATGTACATAAAGAAATATGATT [XGTACX_site4138],11.5 ± 0.85
17,TACATACATACATACACACACACATATATATATATA [CACACA_site42],10.7 ± 0.4
18,TATATATCTTTATGCACACACAAAGAAAATTTTCCT [CACACA_site7366],10.21 ± 0.099
19,GTTTGAATATATCAGGTGCATTTATAATTCATATGA,9.88 ± 0.13
20,ATTAATTTAATTTGAATTATTTTATTATATTATTAT [XGTACX_negctrl_site10],9.55 ± 0.13
21,ATTTAGAATGTTCCTACACACCAAATTTAAGTGTGC [CACACA_site7161],10.11 ± 0.049
22,TACATACACAGACACACACACATATAAATATAAATA [CACACA_site7641],10.2 ± 0.32
23,TTTTTTTTAGTATGAACACACATATAGATTATAAAA [CACACA_site7391],10.2 ± 0.28

row,Sequence,gcPBM binding intensity (ln)
1,TAATTAAATATTTCAGTGCATTATTTTATGATCCAT [GTGCAC_site9456],9.94 ± 0.21
2,AGATGAACTAAAAAGGTGCTAAATATGTGACCACTG [GTGCAC_site9406],11.3 ± 0.82
3,ATAAGAAGAAGAAAAACACACATATGTAAATATATA [CACACA_site3138],9.88 ± 0.13
4,ATATTATAGATATACACACACACATGCATGCACATA [CACACA_site6203],10.06 ± 0.071
5,CAAAATGAAAGGAAAAGTACATTTAAATGAATAAAT [XGTACX_site8241],11.2 ± 0.7
6,AAATAATTCAAAAAAACACACAAATTACAAAATAAA [CACACA_site269],9.94
7,ACCTAATATTATTAAACATGCACATTTGCATAAATA [TGCATGCA_site870],9.93 ± 0.13
8,GTATAATATTCATATTCACACATTAAAATATATTTA [CACACA_site4879],9.85 ± 0.042
9,TAAAAATATATTATATGTACGTATAACAATGTATGA [XGTACX_site8606],11.4 ± 0.85
10,TATAGATGTGGTTTATGTACATACTATAAAAAATCA [XGTACX_site1400],11.4 ± 0.64
11,TTATATATATATATATAATATATATATATTTAAATA [XGTACX_negctrl_site453],9.435 ± 0.049
12,TACACCTGCACGATTGCACACAAATATGTTTTGAAG [CACACA_site8656],10.18 ± 0.071
13,TTATTATTAAAACACACACACAAAAAAAAAAAAAAA [CACACA_site1480],9.83 ± 0.4
14,AAAAAAAAAAAAAAAACACACATGTATAATATAATA [CACACA_site2209],10.2 ± 0.18
15,AAGGACAACAAACAAACACACACAAAAAAAAAATAA [CACACA_site9263],10.2 ± 0.29
16,AAGAATATAATCTTCACACATATATATATATATATA [CACACA_site5927],9.96 ± 0.43
17,ATAATATATATATTATGTACATATAAATTTTTTTTT [XGTACX_site5826],11.2 ± 0.69
18,AAATATTTTTTAATGTGTACATAGAACATATATATA [XGTACX_site3136],11.4 ± 0.91
19,TATATACCTATATATACACACAAATACATAAGCTTC [CACACA_site1369],10.02 ± 0.042
20,TAATTATATGGATACACACACATACATTTACATAAC [CACACA_site5744],10.4 ± 0.26
21,TTTTTTAAAAAACAAACACACACGTAGAAAAAAAAA [CACACA_site826],10.4 ± 0.25
22,AGTATACACAAACACACACACACAAAAAAAAAAAAA [CACACA_site8036],10 ± 0.48
23,TCTACAAAATTATCATGTACATATTATTATAATTAT [XGTACX_site6585],11.1 ± 0.67

row,Sequence,gcPBM binding intensity (ln)
1,AATAGTACAAAAAAAAAAAAAAAAAAAAAAAAAAAA [CACACA_negctrl_site1376],10.6 ± 0.92
2,TAAAAAGAAAAAAAGAGTACAAACAAAATAATAATT [XGTACX_site6071],11.2 ± 0.64
3,TATTTGCAATGCAAATGTACATGAATTTTTTTAATG [XGTACX_site7474],11.1 ± 0.73
4,TATAACTATAAAAGGAGTACTATATATATATATATA [XGTACX_site1388],11.3 ± 0.93
5,ACTTATTTATTTTTAGTGCATTTAGTTTTATTTTAT,10.2 ± 0.13
6,AAGAAAAATGTGTTTTTTTTTTTTTTTTTTTTCAAT [TGCATGCA_negctrl_site404],9.605 ± 0.035
7,CTTTTTTTTTTAAATAGTACTTTCTCGTATACTCAT [XGTACX_site1842],11 ± 0.52
8,TGTGAAATAAAATTTATACACACTTGCTAAATGATC [CACACA_site181],9.85 ± 0.13
9,TTTTTTTATTTTTGTTGTACTTATAATTCTGTAAAA [XGTACX_site7344],11.5 ± 0.77
10,TATAAATATAAATACACACACACACGCCAAAGCGTA [CACACA_site6181],10.2 ± 0.22
11,AAGTTTTTTTCTTTTTTTCTCTCTTTTTTTTTTTTT [XGTACX_negctrl_site613],9.54 ± 0.3
12,TACAAATTAATATGTACACACAAATATAAATATGTA [CACACA_site7016],11.5 ± 0.98
13,TACGTTATATACAACTGTACTTGGATAATTATTAAC [XGTACX_site5614],11.3 ± 0.73
14,TTTTTTATTTATTGTTATACATCTTACTACTTATAA [GTGCAC_negctrl_site381],10.1
15,AATATATTTATATATAGTACTTTTATAATATCGTTT [XGTACX_site6658],11 ± 0.56
16,AATACACATAATACATGTACTCACATTGTTATAACA [XGTACX_site4129],11.4 ± 1
17,GATATGATTAACTTATGTTATTCTTGATGATTACGT [CACACA_negctrl_site354],9.68 ± 0.11
18,CTTAAATCTACTATTTGTACATATTTTATTATTAAA [XGTACX_site6151],10.9 ± 0.49
19,TATTATAATAAAATATGTACACACATACACACATAT [XGTACX_site2360],11.5 ± 0.86
20,CCCAATAATTAAACAACACACATATATATCTGTAAT [CACACA_site5667],9.78 ± 0.042
21,ATAAAATGGGCAAACACACACAAAAAAAAGATATAT [CACACA_site1648],10.3 ± 0.35
22,AGGGGCGAAACAAAGGTGCTTTTATAAAATATGTAA,9.98 ± 0.21
23,AGAAATCATCTGAATTGTACTAACAATTTTTTTTAA [XGTACX_site6191],11.1 ± 0.88

row,Sequence,gcPBM binding intensity (ln)
1,AGAGAAGAAAACAAAACACACACATATATCTTAATA [CACACA_site8699],9.88 ± 0.057
2,AACTTAAAAAAAAAAAAAAAAAAAAAAAAAAAAAAA [GTGCAC_negctrl_site34],9.64 ± 0.26
3,ATATATATATATATATGTACTTATTTATTTTATATA [XGTACX_site8810],11.5 ± 1.1
4,TATATATATATAAAGGTGCATATCTTTACGTATGTC [GTGCAC_site9665],10.2 ± 0.26
5,ATATATATATATGATACATGCATATATTTTTTCTTC [TGCATGCA_site216],9.85 ± 0.28
6,TTTTTTTTATCAAATTGTACATATACAAAGGTGATC [XGTACX_site8054],11 ± 0.78
7,ATTTTATTTTTTAATAGTACTCATTTTTTATGTGAA [XGTACX_site5494],11.1 ± 0.76
8,TAGATAAAATTAAAATGTACAAACCTTTTCCCTTAT [XGTACX_site1136],10.6 ± 0.32
9,TACACGCAGAAACACACACACACACCCATATATATA [CACACA_site637],10.1 ± 0.25
10,TATCACATATTATGATGTACAAAGATTCTGACTAAT [XGTACX_site2770],10.7 ± 0.47
11,AACACCAAACAAAGGTGTACATATAGGAAAAAATCT [XGTACX_site1006],11.3 ± 0.81
12,AGAGGGGAAAACATGATGCACTAGTATAACCAAGAA,10.2 ± 0.14
13,TTTCCTTATAAAAATACACACAAACTTTCATTAAAA [CACACA_site5953],10.1 ± 0.11
14,TCATATTATTATATATGTACATACCAATATATTATA [XGTACX_site2988],11.2 ± 0.79
15,TAGATATGTCTAAAAAGTACTTTCTATAACAATTCT [XGTACX_site6678],10.8 ± 0.44
16,GAATGAATGATAAATTTTTTTTTCTTTTTTTTTTTG [CACACA_negctrl_site333],9.1 ± 0.35
17,AAAAAAAGAAAAAAAACACACACAAATATAAATAAA [CACACA_site8309],9.73 ± 0.16
18,TATTAATTTCTTTTTTCTCATCACTTTCAAAATGAA [CACACA_negctrl_site1055],9.72 ± 0.071
19,TTATGATCATTTATATGTACACATAATTTTTGTGCT [XGTACX_site5568],11.6 ± 0.85
20,GTTCAAATTCTTATACCTTTTTATTGAGCCATAATA [CACACA_negctrl_site210],9.965 ± 0.035
